The text below walks through data of paper PMC7363153, “Disassembly of Tau fibrils by the human Hsp70 disaggregation machinery generates small seeding-competent species” (The Journal of Biological Chemistry, 2020).

The series deals with the molecule itself. In words: fibril assembly shown by sedimentation (centrifugation) + negative-stain EM; 40 uM Tau with 10 uM heparin, 37 °C, shaking at 600 rpm for 4 days; assembly checked by centrifugation at 113,000 x g (35 min, 20 °C) and negative-stain TEM; untreated fibrils (2 uM) also spun at 20,000 x g in the sedimentation assay.

B1: 1N3R Tau (natural protein)
chain: not shown
notes: Used as monomer or as fibrils assembled at 40 uM with 10 uM heparin; also called recombinant 1N3R Tau
Turning to B1, the binding result is on record as “binds”.
